# In PMC10726135:
# The other results are listed elsewhere or left out. At the low end of the ranking the order means little. The protein was read in a cell extract, so binding may be indirect.
# Biological target: T1, HNF4alpha8 (COS-7 nuclear extract) (UniProt P41235-5)
# T1 sequence: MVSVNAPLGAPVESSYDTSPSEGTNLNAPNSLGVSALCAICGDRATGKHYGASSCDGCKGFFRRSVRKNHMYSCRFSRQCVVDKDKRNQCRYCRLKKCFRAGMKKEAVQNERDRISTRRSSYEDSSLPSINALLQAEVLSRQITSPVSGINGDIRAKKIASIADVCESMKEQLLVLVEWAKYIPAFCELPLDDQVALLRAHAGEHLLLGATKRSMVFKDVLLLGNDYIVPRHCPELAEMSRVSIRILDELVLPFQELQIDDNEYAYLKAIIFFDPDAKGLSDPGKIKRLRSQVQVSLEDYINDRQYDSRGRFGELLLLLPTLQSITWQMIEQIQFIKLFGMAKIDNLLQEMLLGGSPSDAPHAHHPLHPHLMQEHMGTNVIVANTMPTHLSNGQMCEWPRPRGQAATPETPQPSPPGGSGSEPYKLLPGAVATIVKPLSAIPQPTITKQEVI
# Assay: protein-binding microarray
# Conditions: COS-7 nuclear extract on double-stranded Agilent 4x180k PBM; binding buffer, salt, pH and temperature not given; high values mean tight binding; double strand, one strand shown; sequences stand for … in …GCCTAGGGAGATTAGAGTATCGGTCGA
row,Sequence,binding signal (log2 normalized intensity)
1,ACTCCTTTGCTTATCTGATAAGTCCATACC,2.06
2,CAAAGGTCAACAAACGCCCCTTGGATGAAT,4.18
3,ATAAGGCCCGGCTGATGGGACCAAAGGTGA,3.51
4,GCATAGGGAGAATGATAAGATATATGACTC,-1.26
5,TGACAAGCAAACACAAACTATGACCTTTGA,9.22
6,TGTACCTGGGGCAAACATCAATTTAGACCG,-0.337
7,GTCCCCTGTGCTTTGGCCAAATAATAGCAT,0.763
8,GAGCGCTTTGAGGCCTATGGCGAAAAAGGA,-1.17
9,GGCTCTCCCCACTTACTTCCTGATAACCTG,0.569
10,GGAAATGCCTAGGATACCTAGTAGGCACAA,-1.33
11,TTGACCTTTGGCCAAGGGCAGTGTTTGCCC,6.36
12,TGACCCTATCCACATTCAGCCCACTTCCTA,0.952
13,GATGCAGGTCGCCGGGAAAACCCGGAGCGG,-1.32
14,GTTCCCTGGGTCGCCAAGCCGGAGGCTTTG,-1.03
15,CTGACTGGCCTGGGAACCCCAAGTTATCTT,0.236
16,TCACCTGTAGGGATGTGGGACTTAATCCTT,-0.00026
17,ACACCTTTTCTAGCTGAGTTGACCTGTGTT,4.51
18,TTGCACTGTGCTTTGTTTACTTAACCTTTG,4.5
19,ATTCAAGAAAGGGGCAAAGTTTATGTGTGA,3.01
20,AAGAAATAAAAACAGCTGGGTTCCAAAAGG,0.513
21,TTGAAAGGGACTTAGAATCGAATTGTGAAA,-1.31
22,GTCAGGGAAGGTGCCAAGCATTCTAATCAT,-0.871
23,CTCAGTGTTCCACAGCAAGTAAATTCCGGG,0.393
24,CTCTGATCTGACCCCTTCTTGACCTGCGTA,4.12

row,Sequence,binding signal (log2 normalized intensity)
1,TTATCAGGACTTTGTGATTACATTGAGTCC,1.97
2,GTGTTCCCAGGGGCTCCCACCAGGGGGAGG,-1.34
3,ATTTAGAGACAATCACTTGTATCGCCTGAA,-1.21
4,TGAGAGAGAAGGCAAGATTTTGTCCTGAGT,0.421
5,TGTCCTTGGCCTCACAGACAGATAGCAAAA,-1.35
6,TCTTTTTGCCACTAGGGGTCACTGTCACAT,3.39
7,ACCTGTCTCTCTGCATTCCTCCTGGCCTCT,1.44
8,TTACAGTGTGAATCTCCAACAAGGCAGGAG,-0.531
9,TGGCTGCTGCTCTCAACTTTCCCTCAGTTC,-1.06
10,TCTTCCCCTCCTTCAGGTCAAGAGGGCCTC,2.33
11,TTTCCAGCTTTGATAGTCTGCTACCATCAG,-1.24
12,TTCAAACACAGGATTGAACCTCTGGAATTC,2.42
13,AAGGACTGAGATAAGAGAAGGGGTCAGGTA,2.22
14,GCCCTCAGGGAGCTCCAGCACTGGGGGACC,-1.35
15,ATCATCACGGTGGACATTGTCCAAGGGCTG,1.84
16,AAGTCCATCTGGGCAAGGTGTCAACCTTCA,1.01
17,AAAGGTCATATCCAAAATATTTGCAGTGAG,2.09
18,CCCAATGCAGTACTATGCAATAACCAGGGA,-1.35
19,ACAGTTCGAACAGTTGGCCACCTTTGGCCG,4.84
20,TAACTGAAAGTCATGCTGAAGTACAGATTC,0.371
21,AATCTTCAGCTGCCTTTTGCCAGGCTACAG,-1.28
22,CAAGATTTGGTGTTACCTTTGGACTGTCCT,5.22
23,TCCTACAAGGGAGATAAACTTTATCTCCCT,-1.19
24,AAGGTAAGTGACCCTGGTCTTTGCCCTTTC,5.35

row,Sequence,binding signal (log2 normalized intensity)
1,GATGATCAGTAAGGAGAGGGGGCGGGGAGA,-1.32
2,TACTCAATAACCACATGAATACACATAATG,-1.46
3,CAATCTTGAGATAAGTACACAAAAGAGCTT,-1.4
4,GCTGTGCCTGAATGCAGGGAGCAGAGTCCC,0.42
5,GTCTCCAGGCAAACTACAGTTTCTGTTTTC,-0.341
6,ATCTTACTTTGAGGTGTTCTCTGGGGTTAG,2.03
7,GGGTGACCAGTGGACCATGAGAAACATCCA,-1.21
8,ACTGAAAGCTATCCCTCCATATTGCAGACA,-0.946
9,TTCAGCTTATAAATCTTCAACTGGAGGATA,0.00305
10,CTACAGGGTATGAATTTAACCTTTGCTCTC,7.57
11,CTGCCTCCAGCTGTTGGTGACTGACCCTGA,3.92
12,GAGGCAGGATGACTGCTTGAGTCCAGGAGT,-0.182
13,TGGTACTGGACATGGTCTAAGAAAAGCAGG,-1.25
14,ATTTTGGGGCTGTATTTACATGGATTAGTC,1.41
15,ACATGTCATTGGCAGAAGGTGGAACAGTCA,0.54
16,AAGGCTCTCTGTTGACCACCTGCCCCAGGA,1.54
17,AGATTCCAGAGGGAGGGAGGGTGGAGGAAC,-1.39
18,AGTTTTTGCCCTTAAGCAGCATGTAGTTTA,0.895
19,TCTTGGAGAGAAAAAATCAGAGAGCAAAGG,2.24
20,AGGAACAGGCCCCAGGGACTTTGGCCTTAC,5.97
21,CTAAGCTTGTAGACCAAGGAGGCCTCTTCC,-1.31
22,GTCTCCTTTCAAGGCAGATTTCTGTCTTTG,0.348
23,TATCAGTGTTGACCTCTGGACCTCATCTTC,6.23
24,ACGTGCAGCAATAGGTCAGAGGACACCCGG,-1.09

row,Sequence,binding signal (log2 normalized intensity)
1,AGACTGCCATTCCAGAAGTAGGATGGGGAG,-1.27
2,AAGGGTCAATGTGATCAGGTGTGGGCATTA,1.3
3,CCAGGCAATCAGCCTTAGGTATGCCCCATG,0.86
4,TCCCCCAACCCCACCTTCATTCTTCATGGG,3.29
5,AGAGCAAAGGTGATCTGCTGGAATGAAGAC,0.237
6,ACCCAGAGAATGCTAGACAAGGGAATTACT,-1.31
7,GCTTTCTATTCAGACCTTCAACTATTTGGA,1.22
8,AACTTCTCACCTTCAGATGCCATGTCTAAA,0.377
9,TGCAATGCGGAATGACATTCAGCAACTGGG,-1.38
10,AGCTTGAATCACTCACTGACCTCTTTTGGA,3.2
11,CAGAGAGGTCAGCAAATGTGGACACTTTGA,1.94
12,AAATGAAGTGGTATCCTGCAGTCAGTCTGA,-0.508
13,TCTCACCAGACCAAGAGCTTAACCTTTGCC,3.84
14,ATGATAACCCCCGTCACTGCAAGGCAAACA,3.78
15,CCTAAGCCTTATTATCTGCTTTTATGACCT,3.51
16,AACTATGCAGTGTCCATGGTGACCATGTGA,1.71
17,AAATATGTTCCACCCAGGGTGGCAGGCTCT,-0.847
18,CTCAGAGCATATGTTGACCCGAGTGCCCTT,5.21
19,CTGTTTGACCAAAGCTACTCATCATGAACT,0.948
20,ATTTGGCCACATCCTGTCTCCTTTAACCTT,2.34
21,TCACAGAGCAGAGAAAATTCTAGATAACTC,-1.44
